Test results reported in a collection of fitness landscapes (doi:10.1016/j.celrep.2020.107928).
Over roughly 81,000 sequences, “one-hybrid fitness for binding parS DNA” has its median near -0.17; the highest 2% begin near 0.51. Some of the results follow.

B1: Caulobacter ParB omega fusion; a variant is named by its letters at X, in order, B8GW30 (parent)
chain: MESVVVGEPGMSEGRRGLGRGLSALLGEVDAAPAQAPGEQLGGSREAPIEILQRNPDQPRRTFREEDLEDLSNSIREKGVLQPILVRPSPDTAGEYQIVAGERAWRAAQRAGLKTVPIMVRELDDLAVLEIGIIENVQRADLNVLEEALSYKVLMEKFERTQENIAQTIGKSXSHVANXMRLLXLPDEVQSYLVSGELTAXHARAIAAAADPVALAKQIIEGGLSVRETEALARKAPNLSAGKSKGGRPPRVKDTDTQALESDLSSVLGLDVSIDHRGSTGTLTITYATLEQLDDLCNRLTRGI

Variants of: B1
Experiment: one-hybrid fitness for binding parS DNA (scaled: cognate 1, non-cognate 0); higher = stronger binding
Details: with parS DNA site
Summary of the method: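 Values were rescaled so that cognate is 1 and non-cognate is 0. Each is a fitness, the log change in a variant's read ratio to wild type from Illumina reads of plasmids before and after selection, with three replicate libraries pooled and variants under 10 reads dropped. Selection of the Caulobacter ParB libraries, four specificity codons randomised, used E. coli USO with a HIS3 reporter, site 19 bp from the promoter, on M9-minus-histidine with 0.1 mM IPTG and 5 mM 3-AT for 48 hours at 37°C.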

| Variant | one-hybrid fitness for binding parS DNA |
| --- | --- |
| SPTM | ≤ 0.2 |
| RKVG | 0.942 |
| MAAS | ≤ 0.2 |
| TLVT | ≤ 0.2 |
| FRQC | ≤ 0.2 |
| PTGY | ≤ 0.2 |
| VSNV | ≤ 0.2 |
| VTRW | ≤ 0.2 |
| AGNS | ≤ 0.2 |
| LVGS | ≤ 0.2 |
| QFDN | ≤ 0.2 |
| VSTN | ≤ 0.2 |
| VQRL | ≤ 0.2 |
| PAVV | ≤ 0.2 |
| CNCR | ≤ 0.2 |
| PRPT | ≤ 0.2 |
| AFYL | ≤ 0.2 |
| SPEI | ≤ 0.2 |
| IMPS | ≤ 0.2 |
| YAAT | ≤ 0.2 |
| MSKM | ≤ 0.2 |
| MNTE | ≤ 0.2 |
| PVNV | ≤ 0.2 |
| TDPM | ≤ 0.2 |
| ATAW | ≤ 0.2 |

| Variant | one-hybrid fitness for binding parS DNA |
| --- | --- |
| HFHR | ≤ 0.2 |
| HCQW | ≤ 0.2 |
| YLPA | ≤ 0.2 |
| YCDC | ≤ 0.2 |
| VFGG | ≤ 0.2 |
| EKLR | ≤ 0.2 |
| RACI | ≤ 0.2 |
| PWRR | ≤ 0.2 |
| GATH | ≤ 0.2 |
| AAPA | ≤ 0.2 |
| CRYR | ≤ 0.2 |
| SDEY | ≤ 0.2 |
| AANG | ≤ 0.2 |
| ARRA | ≤ 0.2 |
| RNDG | 0.679 |
| KRGK | ≤ 0.2 |
| ARHS | ≤ 0.2 |
| QQVG | ≤ 0.2 |
| RRWT | 0.682 |
| VDTH | ≤ 0.2 |
| DYGF | ≤ 0.2 |
| NYFC | ≤ 0.2 |
| YRRM | ≤ 0.2 |
| GICP | ≤ 0.2 |
| QVAL | ≤ 0.2 |

| Variant | one-hybrid fitness for binding parS DNA |
| --- | --- |
| HLKD | ≤ 0.2 |
| RMRE | ≤ 0.2 |
| AKFY | 0.303 |
| LVEC | ≤ 0.2 |
| AKMR | ≤ 0.2 |
| DAPT | ≤ 0.2 |
| ALMV | ≤ 0.2 |
| STKM | ≤ 0.2 |
| AHSL | ≤ 0.2 |
| RSLN | 0.443 |
| VKMT | ≤ 0.2 |
| AAGC | ≤ 0.2 |
| IISS | ≤ 0.2 |
| KLYS | ≤ 0.2 |
| WLEG | ≤ 0.2 |
| FMSV | ≤ 0.2 |
| HLVV | ≤ 0.2 |
| LALR | ≤ 0.2 |
| LRDK | ≤ 0.2 |
| HQRT | ≤ 0.2 |
| PPYF | ≤ 0.2 |
| ECTR | ≤ 0.2 |
| KDSW | ≤ 0.2 |
| AKAS | ≤ 0.2 |
| CRDC | ≤ 0.2 |

| Variant | one-hybrid fitness for binding parS DNA |
| --- | --- |
| SLIP | ≤ 0.2 |
| PTRV | ≤ 0.2 |
| SEDW | ≤ 0.2 |
| TQTR | ≤ 0.2 |
| FIRA | ≤ 0.2 |
| QIHF | ≤ 0.2 |
| AQPY | ≤ 0.2 |
| QQIF | ≤ 0.2 |
| QMSA | ≤ 0.2 |
| WPRY | ≤ 0.2 |
| PLTH | ≤ 0.2 |
| DSLG | ≤ 0.2 |
| SLIV | ≤ 0.2 |
| VLLG | ≤ 0.2 |
| HNWG | ≤ 0.2 |
| YSAM | ≤ 0.2 |
| GYEG | ≤ 0.2 |
| CHQT | ≤ 0.2 |
| WQVS | ≤ 0.2 |
| SQEC | ≤ 0.2 |
| GGMR | ≤ 0.2 |
| SCTS | ≤ 0.2 |
| RAKL | ≤ 0.2 |
| SVFI | ≤ 0.2 |
| PRIM | ≤ 0.2 |

| Variant | one-hybrid fitness for binding parS DNA |
| --- | --- |
| NVRR | ≤ 0.2 |
| LTAK | ≤ 0.2 |
| RFRN | 0.429 |
| CQYT | ≤ 0.2 |
| VENG | ≤ 0.2 |
| PISR | ≤ 0.2 |
| HRKN | ≤ 0.2 |
| MKTC | ≤ 0.2 |
| TYPL | ≤ 0.2 |
| SDQG | ≤ 0.2 |
| VKCR | ≤ 0.2 |
| HGTI | ≤ 0.2 |
| WTCV | ≤ 0.2 |
| GFAG | ≤ 0.2 |
| GWCC | ≤ 0.2 |
| PFFE | ≤ 0.2 |
| AQSS | ≤ 0.2 |
| PFYW | ≤ 0.2 |
| CRVN | ≤ 0.2 |
| VLNL | ≤ 0.2 |
| GGRH | ≤ 0.2 |
| WDYG | ≤ 0.2 |
| GEIR | ≤ 0.2 |
| SGVS | ≤ 0.2 |
| AAGF | ≤ 0.2 |

| Variant | one-hybrid fitness for binding parS DNA |
| --- | --- |
| TQLP | ≤ 0.2 |
| PRGT | ≤ 0.2 |
| SRIS | ≤ 0.2 |
| SREM | ≤ 0.2 |
| TGAW | ≤ 0.2 |
| YASS | ≤ 0.2 |
| RWLN | 0.313 |
| SHIC | ≤ 0.2 |
| SKFG | ≤ 0.2 |
| QTQG | ≤ 0.2 |
| PVMA | ≤ 0.2 |
| ADNT | ≤ 0.2 |
| DGPY | ≤ 0.2 |
| TPYM | ≤ 0.2 |
| RKDL | ≤ 0.2 |
| LPTF | ≤ 0.2 |
| RCSC | 0.961 |
| EYLR | ≤ 0.2 |
| SQAI | ≤ 0.2 |
| RCNL | ≤ 0.2 |
| RFEF | ≤ 0.2 |
| MWHS | ≤ 0.2 |
| LMIT | ≤ 0.2 |
| LALM | ≤ 0.2 |
| QSIF | ≤ 0.2 |

| Variant | one-hybrid fitness for binding parS DNA |
| --- | --- |
| LTNQ | ≤ 0.2 |
| FPTH | ≤ 0.2 |
| IDGR | 0.279 |
| VHDF | ≤ 0.2 |
| AMTF | ≤ 0.2 |
| EFTT | ≤ 0.2 |
| TVNS | ≤ 0.2 |
| RVCM | 0.382 |
| LNAV | ≤ 0.2 |
| QMEG | ≤ 0.2 |
| RVSD | ≤ 0.2 |
| MALP | ≤ 0.2 |
| RTQK | ≤ 0.2 |
| QAAW | ≤ 0.2 |
| QKER | ≤ 0.2 |
| VARP | ≤ 0.2 |
| CMEC | ≤ 0.2 |
| VVCT | ≤ 0.2 |
| GWMI | ≤ 0.2 |
| PKGY | ≤ 0.2 |
| QMMA | ≤ 0.2 |
| QTKG | ≤ 0.2 |
| RPEK | ≤ 0.2 |
| TQMI | ≤ 0.2 |
| ACIL | ≤ 0.2 |

| Variant | one-hybrid fitness for binding parS DNA |
| --- | --- |
| RPGH | ≤ 0.2 |
| GHGM | ≤ 0.2 |
| STLD | ≤ 0.2 |
| VVEF | ≤ 0.2 |
| RSDG | 0.84 |
| NYAN | ≤ 0.2 |
| CHHC | ≤ 0.2 |
| TDSS | ≤ 0.2 |
| APHL | ≤ 0.2 |
| RMGQ | ≤ 0.2 |
| YCSC | ≤ 0.2 |
| IPDQ | ≤ 0.2 |
| LVKV | ≤ 0.2 |
| QKMD | ≤ 0.2 |
| PQSH | ≤ 0.2 |
| IMPG | ≤ 0.2 |
| MAGT | ≤ 0.2 |
| YRRH | ≤ 0.2 |
| ATKE | ≤ 0.2 |
| NAVD | ≤ 0.2 |
